The record followed here is PubChem BioAssay AID1240 (Sanford-Burnham Center for Chemical Genomics, 2008).

Molecules are shown by their SMILES. Screen size: about 50,000 compounds; about 800 (1.6%) showed an effect of 50% or more. Some of the results follow.

The test has as its target Bcl-2-like protein 10 (Homo sapiens) (UniProt Q9HD36). As to the kind of experiment: Phenotype converters, Bcl-B/TR3 peptide binding displacement, primary biochemical FP (AID 1240).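 Further: 0% = Bcl-B with tracer peptide and DMSO and 100% = tracer peptide lacking Bcl-B.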 The settings on record: GST-Bcl-B / FITC-TR3 peptide fluorescence polarization; stronger effect = higher value; compound at 3.75 mg/L.
UniProt Q9HD36, sequence (Q9HD36 whole entry, looked up): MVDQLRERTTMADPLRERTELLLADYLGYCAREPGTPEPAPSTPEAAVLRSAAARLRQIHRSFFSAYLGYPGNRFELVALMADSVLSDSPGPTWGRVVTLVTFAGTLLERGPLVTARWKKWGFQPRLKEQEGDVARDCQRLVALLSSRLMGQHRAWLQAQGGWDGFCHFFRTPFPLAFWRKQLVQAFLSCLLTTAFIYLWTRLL
For `O=C1c2cccc3cccc(c23)C(=O)N1Nc1ccc([N+](=O)[O-])cc1`, the displacement came to 3.8%.

On to `O=C1c2ccccc2C(=O)N1c1ncc(Cc2cccc(Cl)c2Cl)s1`, for which the displacement is -9.2%.

In the case of `CC1=C(C)CC(C(=O)Nc2ccc(Br)cc2)C(C(=O)O)C1` (stereo not given), the displacement is -5.8%.

In the case of `CC1=NN(c2ccccc2)C(=O)/C1=C\c1ccc(-c2cc([N+](=O)[O-])ccc2O)o1`, the displacement was 17.6%.

On to `Cc1ccc(C2Nc3ccc(C(=O)c4ccccc4)cc3NC3=C2C(=O)CCC3)o1` (stereo not given), for which the displacement was -19.8%.

For the compound `Cc1ccc(S(=O)(=O)NC(C)c2ccccc2)cc1` (stereo not given), the displacement is -7.7%.

In the case of `COc1ccc(N(CC(=O)NC2CCCCC2)S(=O)(=O)c2ccccc2)cc1Cl`, the displacement came out at 7.2%.

With `CCCCCc1c(O)nc(SCC(=O)O)[nH]c1=O`, the displacement is -10.3%.

For the compound `O=C1CC(c2ccccc2)CN1C(=O)c1cncc(Br)c1` (stereo not given), the displacement is -9.6%.

With `Nc1nc2ccccc2n1Cc1ccccc1`, the displacement worked out at 14.2%.

In the case of `Nc1nnc(CSc2ccccc2)s1`, the displacement amounted to 5%.

As for `Cc1cc(C)c(C)c(OCCCCCCN2CCCC2)c1`, the displacement is 9%.

Consider `COc1cccc(N2C(=O)NC(=O)C(=Cc3ccc(N(C)C)cc3)C2=O)c1`, for which the displacement amounted to 0.5%.

On to `Cc1ccc(N(CC(=O)NCc2ccncc2)S(=O)(=O)c2ccccc2)cc1C`, for which the displacement is 11.8%.

With `CC(Oc1cc2oc(=O)c3c(c2cc1Cl)CCCC3)C(=O)c1ccccc1` (stereo not given), the displacement was -5.1%.

`CCC1CCc2c(sc(NC(=O)c3cc4ccccc4oc3=O)c2C#N)C1` (stereo not given): the displacement was -1.3%.

As to `O=C(O)C1CC(O)CN1C(=S)Nc1ccccc1` (stereo not given), the displacement stood at 2.4%.

`Cc1ccc(Nc2ncnc3ccc(Br)cc23)cc1C`: the displacement was determined as 1.3%.

For `CCOC(=O)C(CCOc1c(C)cc(Cl)cc1C)C(=O)OCC`, the displacement is -5.7%.

Regarding `Cc1cc(NC(=O)c2cccc3c(Br)cccc23)ccc1NC(=O)c1ccco1`, the displacement was -6.6%.

For `O=c1[nH]c(=S)n(-c2ccc(Br)cc2)c(O)c1/C=C1\C=Nc2ccccc21`, the displacement stood at 40.7%.

`O=C(NCCSCc1ccccc1Cl)C(c1ccccc1)c1ccccc1`: the displacement is 0.9%.

Take `O=C(c1coc2ccc(O)c(CN3CCOCC3)c12)C1CC1`: the displacement was -11.1%.

Take `Cc1c(Cl)cccc1-n1ncnc1-c1cccc(Br)c1`: the displacement was -1.9%.

For the compound `COC(=O)C1=C(C(=O)OC)C2(OC1c1cccc(F)c1)C(=O)c1ccccc1C2=O` (stereo not given), the displacement was -0.3%.

As to `O=C1C(Cl)=C(Nc2ccccc2)C(=O)N1c1ccc(Br)cc1`, the displacement was found to be 6.4%.

With `COc1ccc(CC(=O)Nc2ccc(Br)c(C)c2)cc1OC`, the displacement was 11%.

Take `CCOc1ccccc1NC(=O)CSc1nnc(C)s1`: the displacement was found to be 7.3%.

With `COc1ccc(/C=C2\SC(=S)N(C(C(=O)O)C(C)C)C2=O)c(OC)c1` (stereo not given), the displacement stood at 1.7%.

`Brc1ccc(/C=N/N2CCN(c3ccccn3)CC2)cc1`: the displacement was -8.8%.

For the compound `COc1ccc(NC(=O)COc2cccc(Cl)c2)c(OC)c1`, the displacement was -4%.

For `CCOc1ccc(Nc2nc(-c3c(C)nc4cc(C)ccn34)cs2)cc1`, the displacement was -17.2%.

Regarding `Cc1ccc(C)c(NC(=O)c2ccc(-c3cccc(Cl)c3C)o2)c1`, the displacement worked out at 0.5%.

With `Oc1cccc(/C=N/Nc2cc(N3CCOCC3)nc(N3CCOCC3)n2)c1`, the displacement turned out to be 2%.

Take `COc1ccc(C(=O)CSc2nnc(COc3ccc(Cl)cc3Cl)o2)cc1`: the displacement is 2.5%.

Take `O=C(CC(=O)NC1CCCCC1)N/N=C/c1ccccc1OCc1ccccc1`: the displacement is -2.6%.

With `O=C1C=CC(=O)N1c1cccc(Br)c1`, the displacement is -19.2%.

For `CCn1c2ccccc2c2cc(CNCc3ccc4c(c3)OCO4)ccc21`, the displacement is -3.3%.

Consider `COC(=O)C1=C(C)NC(=O)CC1c1ccc(Cl)cc1Cl` (stereo not given), for which the displacement was 17.5%.

With `O=C(NCC(O)c1ccccc1)C(=O)Nc1ccc(F)cc1` (stereo not given), the displacement amounted to 5%.

For the compound `CN(C)c1ccc(/C=C2\SC(=S)N(c3cccc(C(=O)O)c3)C2=O)cc1`, the displacement was -76.7%.

For the compound `CCOc1ccc(N2C(=O)CC(Nc3ccc(N4CCOCC4)cc3)C2=O)cc1` (stereo not given), the displacement worked out at 8.5%.

As for `COc1cc(C(=O)Nc2cccc(NC(=O)c3ccccc3Cl)c2)ccc1[N+](=O)[O-]`, the displacement came to 21.3%.

Take `Ic1ccc(OCCCCN2CCCC2)cc1`: the displacement amounted to 12.7%.

Consider `O=C(NCc1ccco1)c1cc(-c2ccccc2)nc2ccccc12`, for which the displacement is -9.5%.

For `Cc1cccc(NC(=O)C(=O)NNC(=O)c2ccc(C(C)(C)C)cc2)c1`, the displacement was -10%.

With `COc1cc(CNCc2c[nH]c3ccccc23)cc(OC)c1OC`, the displacement was determined as 2%.

As for `CCOc1ccc(/C=C2\C(=O)NC(=S)N(c3cccc(Cl)c3)C2=O)cc1Cl`, the displacement was determined as 10.2%.

In the case of `Cc1ccc(/C(O)=C2\C(=O)C(=O)N(CCCC(=O)O)C2c2cccc(F)c2)cc1` (stereo not given), the displacement worked out at 7.1%.

In the case of `O=C1NC(=S)S/C1=C/c1ccccc1Sc1ccc(Cl)cc1`, the displacement turned out to be 9.1%.

As for `COc1cc(NC(=O)Cc2ccccc2)ccc1NC(=O)c1ccco1`, the displacement worked out at 5.4%.

Consider `Cc1c(N=Cc2ccc(-c3cccc(Cl)c3)o2)c(=O)n(-c2ccccc2)n1C`, for which the displacement came to 2.6%.

Take `COc1c(Cl)cc(/C=C2/SC(=S)N(Cc3ccccc3)C2=O)cc1Cl`: the displacement was found to be 4.2%.

As to `COc1ccccc1NCC(=O)N/N=C\c1c(F)cccc1Cl`, the displacement worked out at 2%.

On to `COc1cc(C(=O)N/C(=C/c2ccc(F)cc2)C(=O)NC(C)C(=O)O)cc(OC)c1OC` (stereo not given), for which the displacement is 2.5%.

In the case of `COc1ccccc1/C=C1\C(=O)NC(=S)N(c2ccc(Br)cc2C)C1=O`, the displacement was 4.6%.

As to `O=C1NN(c2ccccc2)C(=O)/C1=C/c1cccc(Cl)c1Cl`, the displacement stood at 15%.

`O=C(NC1CCCCC1)c1cc(Cl)ccc1[N+](=O)[O-]`: the displacement is -10.4%.

Take `Cc1ccc(SCCNC(=O)CN(c2ccc(C)cc2)S(C)(=O)=O)cc1`: the displacement is -13.4%.

As for `O=C(CSc1nnc(-c2ccco2)n1-c1ccccc1)c1cccc([N+](=O)[O-])c1`, the displacement is 22.7%.

Regarding `NC(=O)CCC(NC(=O)C(c1ccccc1)c1ccccc1)C(=O)O` (stereo not given), the displacement was found to be 14%.

For the compound `O=C(N/N=C/c1c(Cl)cccc1Cl)c1cc(-c2cccc([N+](=O)[O-])c2)n[nH]1`, the displacement is -7.9%.

As for `Cc1cc(C)c(NC(=O)C(C)SCC(=O)Nc2ccc3ccccc3c2)c(C)c1` (stereo not given), the displacement was 10.3%.

Regarding `Cc1no[n+]([O-])c1COc1ccc(/C=C2\SC(=S)NC2=O)cc1`, the displacement is -27.5%.

As to `O=C(N=Nc1c(O)[nH]c2ccc(F)cc12)c1ccccc1O`, the displacement is -9.7%.

In the case of `COc1ccc(C(=O)N2CCN(Cc3ccc(C)cc3C)CC2)cc1`, the displacement is -10.4%.

As for `O=c1oc2c3c(ccc2c2c1CCC2)OCN(c1ccc(Cl)cc1)C3`, the displacement is -5.8%.

For `NC(=O)C1CCN(C(=O)c2ccc(Cl)cc2)CC1`, the displacement was 11.1%.

As for `COc1ccc(/C(O)=C2/C(=O)C(=O)N(CCCCCC(=O)O)C2c2cccc(F)c2)cc1` (stereo not given), the displacement is -16.7%.

For `Cc1c(/C=C/c2nc3ccccc3c(=O)n2-c2ccccc2)c2ccccc2n1C`, the displacement amounted to 22.5%.
